Measurements reported in paper PMC12136788.
The list shows a part of the results.

B1: chr6:41683977:41685078:-|three_prime_utr|ENSG00000112561|control|control|control (ssRNA)
RNA: GGGAGUUCUACAGUCCGACGAUCUCCCCGUCCGGCAUGAACAUGGCUGAGCUGGCCCAGCAGGUGGUGAAGCAGGAGCUGCCUAGCGAAGAGGGCCCAGGGGAGGCCCUGAUGCUGGGGGCUGAGGUCCCUGACCCUGAGCCACAACAGAGGAUUGAGCAUCA
B2: chr15:48878618:48878734:+|CDS|ENSG00000255302|unk|FALSE|bound_elsewhere (ssRNA)
RNA: GGGAGUUCUACAGUCCGACGAUCAGAACCAGCCCUGGAUGGCGGGUUUCAGAUGCAUUAUGAGAAGACCCCGUUUGAUCAGUUAGCUUUUAUCGAAGAGCUUUUUUCACUGAUGGUUGUCAAUCGUCUGACCGAAGAACUCGGCAACAGAGGAUUGAGCAUCA
B3: ENSG00000070961:be:win_5901|3pUTR|ENSG00000070961|bound_else_gene|NA|bound_elsewhere_windowed (ssRNA)
RNA: GGGAGUUCUACAGUCCGACGAUCGUAUUGAGCUUUUACAGUAUUCAUUUUUCAACUCAAGGCAAUGGCUUUCUACACCAACUCUAAUCCAUAAACGGGUCUUAUGACAUCUAUGAAGUAGUAGCAAGACAUGCUUAGUGUGUACAACAGAGGAUUGAGCAUCA
B4: chr2:85351679:85351862:-|CDS|ENSG00000042445|control|control|control (ssRNA)
RNA: GGGAGUUCUACAGUCCGACGAUCGAAGCUGGAUGUGGUGGUAAUUGGCAGUGGCUUUGGGGGCCUGGCUGCAGCUGCAAUUCUAGCUAAAGCUGGCAAGCGAGUCCUGGUGCUGGAACAACAUACCAAGGCAGGGGGCUGCUGCAACAGAGGAUUGAGCAUCA
B5: chr1:156672197:156672316:-|CDS|ENSG00000132688|unk|FALSE|bound_elsewhere (ssRNA)
RNA: GGGAGUUCUACAGUCCGACGAUCGACAUUGCAAUCCCUGCAAAAGGAGAAUCAAGAACUAAUGAAAUCUCUUGAAGGUAAUCUAGAGACAUUUUUAUUUCCAGGAACGGAAAAUCAAGAAUUAGUAAGUUCUCUGCAAGAGAACAACAGAGGAUUGAGCAUCA
B6: chr9:99150529:99150630:+|3pUTR|ENSG00000106799|msi1|FALSE|unique (ssRNA)
RNA: GGGAGUUCUACAGUCCGACGAUCCAUUUGUUAUGUAUGUAGGAGUAAACGUUCGGUGGAUCCUCUGUCUUUGUAACUGAGGUUAGAGCUAGUGUGGUUUUGAGGUCUCACUACACUUUGAGGAAGGCAGCUUUUAAUUCAGUGCAACAGAGGAUUGAGCAUCA
B7: chr12:120700859:120700960:+|3pUTR|ENSG00000110917|msi1|total|mutant (ssRNA)
RNA: GGGAGUUCUACAGUCCGACGAUCUCUUUGCAUCUGUGUGGCUUGCUUCCAGUCUGGCCUGUCCUUUCCAGCUGCCUUUUGUCCCGCCUGCUAUGGGGGGCCAGAUUAUCUUGAUAAGAGCAGGUGAUUUGGGGACCCGCUGGGCAACAGAGGAUUGAGCAUCA
B8: chr19:34469546:34469571:+|3pUTR|ENSG00000126261|msi1_unk|total|mutant (ssRNA)
RNA: GGGAGUUCUACAGUCCGACGAUCGUUGCCUUUUUAAUGUAAAUACCCGCCGGUAUCAUUAACCGUUUCAAAAUAUUGUGGUUCCGUAAAGUUGAUACCUGGUUAUAAAUAUUAUGCCUUUAUUUUUGGCCCGAAGAAGAAUUACAACAGAGGAUUGAGCAUCA
B9: chr16:85089731:85089832:+|3pUTR|ENSG00000135709|msi1|total|mutant (ssRNA)
RNA: GGGAGUUCUACAGUCCGACGAUCUUGGAAGGUUUCCCUCCGGGGAAUGCCUCCCUGGAAUGUUCCAGAGACGGAACAUUCUCCCGAGACAACAGUCUGUGCUGCAGAUUGGUUGGAUCACAGAAUGUGUGUCUGGGGCAUUAUCAACAGAGGAUUGAGCAUCA
B10: chr19:15878022:15878898:-|three_prime_utr|ENSG00000186115|control|control|control (ssRNA)
RNA: GGGAGUUCUACAGUCCGACGAUCUCUGCAGAGACCCACUCUGACCCCACUAAAAUGACCCCUGAUUCAUCAAAAGUGAAGCCUAGAAUUACCCUAAGACCCUGUUCCACAGUCCUGUAUUCCAUCCUAGAUAUCUACUCAAAACAACAGAGGAUUGAGCAUCA
B11: chr7:123692404:123692516:-|CDS|ENSG00000106299|unk|FALSE|unique (ssRNA)
RNA: GGGAGUUCUACAGUCCGACGAUCCCUGCCUUCUGAUGGGGACCAUCAGGUUCCAACUACUGCAGGAAACAAAGCAGCUCUUUUAGAUCAAAUUAGAGAGGGUGCUCAGCUAAAAAAAGUGGAGCAGAACAGUCGGCCAGUGUCCAACAGAGGAUUGAGCAUCA
B12: chr14:77132432:77132533:-|3pUTR|ENSG00000177108|unk|total|mutant (ssRNA)
RNA: GGGAGUUCUACAGUCCGACGAUCUGUGAUUGCUGGACCCAGAGGCAAGAUCUGCAGAGAUGCCUGUGAGAUAUUUGCUUUCCCCGAGGGGAGUGUGGGCAUGGGAGGGGUCUGAAAAUCAGGACCCAACCCAGCCACUGAAGACAACAGAGGAUUGAGCAUCA
B13: chr17:42842016:42842117:+|3pUTR|ENSG00000131467|msi1|total|mutant (ssRNA)
RNA: GGGAGUUCUACAGUCCGACGAUCUUACUGUUUCUUUCCUCUGUGGGGCAUUGGAUCCUCCCACAGUUGCCCUGGUGAUGACUCCGGGCUUCCCAUCUGUGUACAUCCCACUUUGAAUCUUGAUCGUGACAAGAAAUACCUCCGCAACAGAGGAUUGAGCAUCA
B14: chr22:38483724:38483825:-|3pUTR|ENSG00000100201|msi1|total|mutant (ssRNA)
RNA: GGGAGUUCUACAGUCCGACGAUCACUUAUAAUUCAGGUUCUGCUGUUGGCUUCAGAACAUGAGCAGAAGAAUCGUUUUAUGCCCGUUAUUGCAUUCAUGGUUGAAACUCAACUCCGGGAAAGGGUUCCAAUGUAUUAAGCAAUCAACAGAGGAUUGAGCAUCA

molecular target: MSI1 full-length (mouse, UniProt Q61474 1-362); experiment: nsRBNS (natural sequence RNA bind-n-seq); RBNS binding buffer (assumed for nsRBNS): 25 mM Tris pH 7.5, 150 mM KCl, 3 mM MgCl2, 0.01% Triton X-100, 500 ug/ml BSA, 20 U/ml SUPERase-In, 4 C; UNK is unkempt and MSI1 is Musashi-1; names of the RNAs are library labels; protein concentration not given here; high values mean tight binding
Sequence of UniProt Q61474 (Q61474 whole entry): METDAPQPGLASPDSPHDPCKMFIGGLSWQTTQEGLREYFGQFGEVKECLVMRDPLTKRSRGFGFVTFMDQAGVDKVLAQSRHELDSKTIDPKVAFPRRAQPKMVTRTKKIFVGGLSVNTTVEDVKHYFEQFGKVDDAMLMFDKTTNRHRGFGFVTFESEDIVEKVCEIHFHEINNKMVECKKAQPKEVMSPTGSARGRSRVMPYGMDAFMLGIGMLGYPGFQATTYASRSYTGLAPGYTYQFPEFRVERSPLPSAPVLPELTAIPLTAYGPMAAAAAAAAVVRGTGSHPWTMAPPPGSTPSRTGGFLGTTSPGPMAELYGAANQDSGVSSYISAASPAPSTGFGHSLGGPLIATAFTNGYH

Binder | binding signal
B1 | 0.352 enrichment R
B2 | 0.625 enrichment R
B3 | 2.99 enrichment R
B4 | 0.486 enrichment R
B5 | 0.503 enrichment R
B6 | 3.26 enrichment R
B7 | 0.392 enrichment R
B8 | 1.89 enrichment R
B9 | 0.228 enrichment R
B10 | 0.915 enrichment R
B11 | 0.703 enrichment R
B12 | 0.315 enrichment R
B13 | 0.478 enrichment R
B14 | 0.185 enrichment R
